# Numbering of substitutions follows the chain as printed. No constants are given. Whether binding was seen depends on the method and setting. In cells and extracts the contact can be indirect. Some entries that bind do so weakly or less than the wild type. Tags and fused reporters may be left off the sequences shown.
# B1: UPF1 (endogenous) (protein, UniProt Q92900 1-1129)
# chain: MSVEAYGPSSQTLTFLDTEEAELLGADTQGSEFEFTDFTLPSQTQTPPGGPGGPGGGGAGGPGGAGAGAAAGQLDAQVGPEGILQNGAVDDSVAKTSQLLAELNFEEDEEDTYYTKDLPIHACSYCGIHDPACVVYCNTSKKWFCNGRGNTSGSHIVNHLVRAKCKEVTLHKDGPLGETVLECYNCGCRNVFLLGFIPAKADSVVVLLCRQPCASQSSLKDINWDSSQWQPLIQDRCFLSWLVKIPSEQEQLRARQITAQQINKLEELWKENPSATLEDLEKPGVDEEPQHVLLRYEDAYQYQNIFGPLVKLEADYDKKLKESQTQDNITVRWDLGLNKKRIAYFTLPKTDSGNEDLVIIWLRDMRLMQGDEICLRYKGDLAPLWKGIGHVIKVPDNYGDEIAIELRSSVGAPVEVTHNFQVDFVWKSTSFDRMQSALKTFAVDETSVSGYIYHKLLGHEVEDVIIKCQLPKRFTAQGLPDLNHSQVYAVKTVLQRPLSLIQGPPGTGKTVTSATIVYHLARQGNGPVLVCAPSNIAVDQLTEKIHQTGLKVVRLCAKSREAIDSPVSFLALHNQIRNMDSMPELQKLQQLKDETGELSSADEKRYRALKRTAERELLMNADVICCTCVGAGDPRLAKMQFRSILIDESTQATEPECMVPVVLGAKQLILVGDHCQLGPVVMCKKAAKAGLSQSLFERLVVLGIRPIRLQVQYRMHPALSAFPSNIFYEGSLQNGVTAADRVKKGFDFQWPQPDKPMFFYVTQGQEEIASSGTSYLNRTEAANVEKITTKLLKAGAKPDQIGIITPYEGQRSYLVQYMQFSGSLHTKLYQEVEIASVDAFQGREKDFIILSCVRANEHQGIGFLNDPRRLNVALTRARYGVIIVGNPKALSKQPLWNHLLNYYKEQKVLVEGPLNNLRESLMQFSKPRKLVNTINPGARFMTTAMYDAREAIIPGSVYDRSSQGRPSSMYFQTHDQIGMISAGPSHVAAMNIPIPFNLVMPPMPPPGYFGQANGPAAGRGTPKGKTGRGGRQKNRFGLPGPSQTNLPNSQASQDVASQPFSQGALTQGYISMSQPSQMSQPGLSQPELSQDSYLGDEFKSQIDVALSQDSTYQGERAYQHGGVTGLSQY
# B2: SMG5 (endogenous) (protein, UniProt Q9UPR3 1-1016)
# chain: MSQGPPTGESSEPEAKVLHTKRLYRAVVEAVHRLDLILCNKTAYQEVFKPENISLRNKLRELCVKLMFLHPVDYGRKAEELLWRKVYYEVIQLIKTNKKHIHSRSTLECAYRTHLVAGIGFYQHLLLYIQSHYQLELQCCIDWTHVTDPLIGCKKPVSASGKEMDWAQMACHRCLVYLGDLSRYQNELAGVDTELLAERFYYQALSVAPQIGMPFNQLGTLAGSKYYNVEAMYCYLRCIQSEVSFEGAYGNLKRLYDKAAKMYHQLKKCETRKLSPGKKRCKDIKRLLVNFMYLQSLLQPKSSSVDSELTSLCQSVLEDFNLCLFYLPSSPNLSLASEDEEEYESGYAFLPDLLIFQMVIICLMCVHSLERAGSKQYSAAIAFTLALFSHLVNHVNIRLQAELEEGENPVPAFQSDGTDEPESKEPVEKEEEPDPEPPPVTPQVGEGRKSRKFSRLSCLRRRRHPPKVGDDSDLSEGFESDSSHDSARASEGSDSGSDKSLEGGGTAFDAETDSEMNSQESRSDLEDMEEEEGTRSPTLEPPRGRSEAPDSLNGPLGPSEASIASNLQAMSTQMFQTKRCFRLAPTFSNLLLQPTTNPHTSASHRPCVNGDVDKPSEPASEEGSESEGSESSGRSCRNERSIQEKLQVLMAEGLLPAVKVFLDWLRTNPDLIIVCAQSSQSLWNRLSVLLNLLPAAGELQESGLALCPEVQDLLEGCELPDLPSSLLLPEDMALRNLPPLRAAHRRFNFDTDRPLLSTLEESVVRICCIRSFGHFIARLQGSILQFNPEVGIFVSIAQSEQESLLQQAQAQFRMAQEEARRNRLMRDMAQLRLQLEVSQLEGSLQQPKAQSAMSPYLVPDTQALCHHLPVIRQLATSGRFIVIIPRTVIDGLDLLKKEHPGARDGIRYLEAEFKKGNRYIRCQKEVGKSFERHKLKRQDADAWTLYKILDSCKQLTLAQGAGEEDPSGMVTIITGLPLDNPSVLSGPMQAALQAAAHASVDIKNVLDFYKQWKEIG
# How the values were obtained:
# Test in all cases: co-IP; FLAG-tagged SMG7 constructs expressed in SMG7 KO cells; lysis in buffer E (20 mM HEPES-KOH pH 7.9, 100 mM KCl, 10% glycerol, 1 mM DTT, 1 µg/ml RNase A); Anti-FLAG M2 magnetic beads, 2 h at 4 °C; immunoblot (Fig. 2c, Extended Data Fig. 3f)
# [1] = molecular target: T1, FLAG-tagged SMG7 1-633 (human) (UniProt Q92540)
# T1 sequence: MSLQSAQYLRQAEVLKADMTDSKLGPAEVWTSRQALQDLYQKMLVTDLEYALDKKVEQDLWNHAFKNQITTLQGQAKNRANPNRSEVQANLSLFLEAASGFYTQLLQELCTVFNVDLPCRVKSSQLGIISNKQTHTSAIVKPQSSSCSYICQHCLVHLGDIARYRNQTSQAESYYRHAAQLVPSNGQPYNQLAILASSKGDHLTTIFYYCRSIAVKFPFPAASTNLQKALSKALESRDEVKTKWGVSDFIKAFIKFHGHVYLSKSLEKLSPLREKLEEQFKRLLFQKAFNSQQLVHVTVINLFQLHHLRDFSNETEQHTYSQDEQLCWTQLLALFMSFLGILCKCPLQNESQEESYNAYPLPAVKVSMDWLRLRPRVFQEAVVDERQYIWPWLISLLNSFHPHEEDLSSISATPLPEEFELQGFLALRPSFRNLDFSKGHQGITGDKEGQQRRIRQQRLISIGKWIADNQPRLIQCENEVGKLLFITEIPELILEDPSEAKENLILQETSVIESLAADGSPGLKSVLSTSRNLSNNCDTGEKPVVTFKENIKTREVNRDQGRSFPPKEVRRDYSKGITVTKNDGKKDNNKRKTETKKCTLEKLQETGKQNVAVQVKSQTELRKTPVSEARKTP
# [2] = molecular target: T2, FLAG-tagged SMG7 1-633 G100E (human) (UniProt Q92540)
# T2 sequence: T1 sequence with G100E
# [3] = molecular target: T3, FLAG-tagged SMG7 G100E (human) (UniProt Q92540)
# T3 sequence: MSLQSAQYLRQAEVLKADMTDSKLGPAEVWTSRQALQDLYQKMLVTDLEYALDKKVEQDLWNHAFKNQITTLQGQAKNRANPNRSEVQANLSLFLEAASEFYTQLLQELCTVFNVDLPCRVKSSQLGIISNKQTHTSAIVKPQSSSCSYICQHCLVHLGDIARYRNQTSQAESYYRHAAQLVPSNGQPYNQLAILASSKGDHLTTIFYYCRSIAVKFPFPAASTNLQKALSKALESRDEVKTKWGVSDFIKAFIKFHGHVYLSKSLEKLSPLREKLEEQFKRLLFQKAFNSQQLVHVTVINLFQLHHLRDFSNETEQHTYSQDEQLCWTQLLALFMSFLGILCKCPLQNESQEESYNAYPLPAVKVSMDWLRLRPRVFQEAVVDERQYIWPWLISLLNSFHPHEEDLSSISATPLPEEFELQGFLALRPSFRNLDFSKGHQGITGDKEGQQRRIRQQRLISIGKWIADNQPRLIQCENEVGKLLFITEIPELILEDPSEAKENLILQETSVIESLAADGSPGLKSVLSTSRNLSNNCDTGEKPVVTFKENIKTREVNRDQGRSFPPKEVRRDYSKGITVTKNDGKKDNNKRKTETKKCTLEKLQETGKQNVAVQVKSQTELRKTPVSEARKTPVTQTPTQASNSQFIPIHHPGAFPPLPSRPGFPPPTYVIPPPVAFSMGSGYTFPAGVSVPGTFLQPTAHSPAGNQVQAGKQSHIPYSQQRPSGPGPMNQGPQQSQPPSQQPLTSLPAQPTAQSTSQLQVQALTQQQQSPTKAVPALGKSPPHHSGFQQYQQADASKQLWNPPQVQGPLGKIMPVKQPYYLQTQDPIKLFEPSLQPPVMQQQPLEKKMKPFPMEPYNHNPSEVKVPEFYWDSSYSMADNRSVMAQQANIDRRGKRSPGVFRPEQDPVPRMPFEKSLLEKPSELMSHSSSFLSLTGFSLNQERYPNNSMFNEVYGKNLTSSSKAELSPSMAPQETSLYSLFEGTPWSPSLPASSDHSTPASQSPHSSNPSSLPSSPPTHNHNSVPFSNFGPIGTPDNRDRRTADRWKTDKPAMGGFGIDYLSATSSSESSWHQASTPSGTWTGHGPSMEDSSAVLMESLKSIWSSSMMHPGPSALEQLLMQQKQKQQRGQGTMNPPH
# [4] = molecular target: T4, FLAG-tagged SMG7 WT (human) (UniProt Q92540)
# T4 sequence: T3 sequence with E100G
Binder,binding [1],binding [2],binding [3],binding [4]
B1,binds,binds,binds,binds
B2,–,–,no binding,–

# Source: paper PMC8233366
